# Laboratory results as given in a collection of fitness landscapes (doi:10.1016/j.celrep.2020.107928).
# Over roughly 81,000 sequences, “one-hybrid fitness for binding NBS DNA” has its median near -0.1; the highest 2% begin near 0.36. The list shows a part of the results.
# B1: Caulobacter ParB omega fusion; a variant is named by its letters at X, in order, B8GW30 (parent)
# chain: MESVVVGEPGMSEGRRGLGRGLSALLGEVDAAPAQAPGEQLGGSREAPIEILQRNPDQPRRTFREEDLEDLSNSIREKGVLQPILVRPSPDTAGEYQIVAGERAWRAAQRAGLKTVPIMVRELDDLAVLEIGIIENVQRADLNVLEEALSYKVLMEKFERTQENIAQTIGKSXSHVANXMRLLXLPDEVQSYLVSGELTAXHARAIAAAADPVALAKQIIEGGLSVRETEALARKAPNLSAGKSKGGRPPRVKDTDTQALESDLSSVLGLDVSIDHRGSTGTLTITYATLEQLDDLCNRLTRGI
# Variants of: B1
# Experiment: one-hybrid fitness for binding NBS DNA (the Noc-binding site; scaled: cognate 1, non-cognate 0); higher = stronger binding
# Details: with NBS DNA site
# Method in brief: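 Bacterial one-hybrid selection in E. coli USO rpoZ- hisB- pyrF- with a HIS3 reporter carrying the site 19 bp from the promoter, screening Caulobacter ParB libraries with four specificity codons randomised (NNS). Cells grew 48 hours at 37°C on M9-minus-histidine plus 0.1 mM IPTG and 5 mM 3-AT. Plasmids before and after selection were Illumina-sequenced, three replicate libraries pooled, and variants under 10 reads dropped. Fitness is the log change in variant-to-wild-type read ratio, rescaled to cognate 1, non-cognate 0.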
row,Variant,one-hybrid fitness for binding NBS DNA
1,YYPM,≤ 0.2
2,YKNT,≤ 0.2
3,VAYR,≤ 0.2
4,THDQ,≤ 0.2
5,KFMP,≤ 0.2
6,IGSF,≤ 0.2
7,YQQC,≤ 0.2
8,VYYS,≤ 0.2
9,GKYM,≤ 0.2
10,SILM,≤ 0.2
11,GVQP,≤ 0.2
12,WLCW,≤ 0.2
13,QLSV,≤ 0.2
14,AEAT,≤ 0.2
15,NLKS,≤ 0.2
16,RIWK,≤ 0.2
17,QSQS,0.36
18,RYIR,0.203
19,DIKR,0.201
20,QDKH,≤ 0.2
21,WFAG,≤ 0.2
22,SCLR,≤ 0.2
23,QMML,≤ 0.2
24,GTQN,≤ 0.2
25,PFMG,≤ 0.2
26,NTQG,≤ 0.2

row,Variant,one-hybrid fitness for binding NBS DNA
1,FHSC,≤ 0.2
2,PRNG,≤ 0.2
3,LATP,≤ 0.2
4,VFEI,≤ 0.2
5,GVKT,≤ 0.2
6,IGDG,≤ 0.2
7,QNNS,0.238
8,HCNW,≤ 0.2
9,AVQY,≤ 0.2
10,QKFV,≤ 0.2
11,LMSA,≤ 0.2
12,TAMS,≤ 0.2
13,ATNP,≤ 0.2
14,LLDM,≤ 0.2
15,KWNY,≤ 0.2
16,QRDY,0.289
17,QMNW,≤ 0.2
18,RWST,≤ 0.2
19,TPPW,≤ 0.2
20,MDDQ,≤ 0.2
21,MRCT,≤ 0.2
22,CAAN,≤ 0.2
23,TCDD,≤ 0.2
24,CRAS,≤ 0.2
25,QTFN,≤ 0.2
26,RKVE,≤ 0.2

row,Variant,one-hybrid fitness for binding NBS DNA
1,RGDR,≤ 0.2
2,HYEM,≤ 0.2
3,LTTI,≤ 0.2
4,QYPA,≤ 0.2
5,MIWC,≤ 0.2
6,TTNF,≤ 0.2
7,CRRT,0.348
8,HAHE,≤ 0.2
9,RAWG,≤ 0.2
10,HIYR,≤ 0.2
11,YPCW,≤ 0.2
12,PTNN,≤ 0.2
13,QAPL,≤ 0.2
14,ATFH,≤ 0.2
15,NIHF,≤ 0.2
16,SQWS,≤ 0.2
17,RNET,0.209
18,LRAT,≤ 0.2
19,HKRW,≤ 0.2
20,QQGM,0.202
21,SQAH,≤ 0.2
22,ADIF,≤ 0.2
23,ESVL,≤ 0.2
24,RAND,≤ 0.2
25,ATES,≤ 0.2
26,TYIV,≤ 0.2

row,Variant,one-hybrid fitness for binding NBS DNA
1,AAGS,≤ 0.2
2,QREE,≤ 0.2
3,RMTR,0.446
4,SMLL,≤ 0.2
5,PTLM,≤ 0.2
6,FNHC,≤ 0.2
7,RYVI,≤ 0.2
8,LQTN,≤ 0.2
9,CVFG,≤ 0.2
10,LSGI,≤ 0.2
11,FAKT,≤ 0.2
12,MLKA,≤ 0.2
13,TSNV,≤ 0.2
14,CLCT,≤ 0.2
15,RTYF,≤ 0.2
16,PGID,≤ 0.2
17,GPPG,≤ 0.2
18,DNHT,≤ 0.2
19,RDNS,≤ 0.2
20,SAEP,≤ 0.2
21,IAVT,≤ 0.2
22,MKPS,≤ 0.2
23,TMSN,≤ 0.2
24,TLGI,≤ 0.2
25,HDPK,≤ 0.2
26,QSNR,0.62

row,Variant,one-hybrid fitness for binding NBS DNA
1,SCNH,≤ 0.2
2,QINK,≤ 0.2
3,YYRC,≤ 0.2
4,TIWS,≤ 0.2
5,FLAD,≤ 0.2
6,CLFK,≤ 0.2
7,LYPC,≤ 0.2
8,PYPT,≤ 0.2
9,LNSI,≤ 0.2
10,VWPR,≤ 0.2
11,QCAT,0.533
12,NELG,≤ 0.2
13,RNKC,≤ 0.2
14,TIEG,≤ 0.2
15,VMVD,≤ 0.2
16,QLRM,0.333
17,WAPT,≤ 0.2
18,ANWM,≤ 0.2
19,DMAD,≤ 0.2
20,ARLF,≤ 0.2
21,RADQ,≤ 0.2
22,AHMT,≤ 0.2
23,QNPR,≤ 0.2
24,EAMC,≤ 0.2
25,DLNT,≤ 0.2
26,YMLW,≤ 0.2

row,Variant,one-hybrid fitness for binding NBS DNA
1,CFRK,≤ 0.2
2,LTGL,≤ 0.2
3,AGIS,≤ 0.2
4,QAIQ,≤ 0.2
5,HIET,≤ 0.2
6,VVRH,≤ 0.2
7,RQCI,≤ 0.2
8,ALFT,≤ 0.2
9,PQLG,≤ 0.2
10,WDTV,≤ 0.2
11,SAWY,≤ 0.2
12,TSWV,≤ 0.2
13,YTYV,≤ 0.2
14,TCPC,≤ 0.2
15,RIFV,≤ 0.2
16,CYMV,≤ 0.2
17,HIVT,≤ 0.2
18,EGSR,≤ 0.2
19,QCRG,0.451
20,ILPM,≤ 0.2
21,GGDG,≤ 0.2
22,CPSF,≤ 0.2
23,AFTK,≤ 0.2
